# Over roughly 33,000 sequences, “E-score (-0.5 to 0.5)” has its median near -0.036; the highest 2% begin near 0.37. The list shows a part of the results.
# Target: T1, Yer064c (UniProt P40041)
# T1 sequence: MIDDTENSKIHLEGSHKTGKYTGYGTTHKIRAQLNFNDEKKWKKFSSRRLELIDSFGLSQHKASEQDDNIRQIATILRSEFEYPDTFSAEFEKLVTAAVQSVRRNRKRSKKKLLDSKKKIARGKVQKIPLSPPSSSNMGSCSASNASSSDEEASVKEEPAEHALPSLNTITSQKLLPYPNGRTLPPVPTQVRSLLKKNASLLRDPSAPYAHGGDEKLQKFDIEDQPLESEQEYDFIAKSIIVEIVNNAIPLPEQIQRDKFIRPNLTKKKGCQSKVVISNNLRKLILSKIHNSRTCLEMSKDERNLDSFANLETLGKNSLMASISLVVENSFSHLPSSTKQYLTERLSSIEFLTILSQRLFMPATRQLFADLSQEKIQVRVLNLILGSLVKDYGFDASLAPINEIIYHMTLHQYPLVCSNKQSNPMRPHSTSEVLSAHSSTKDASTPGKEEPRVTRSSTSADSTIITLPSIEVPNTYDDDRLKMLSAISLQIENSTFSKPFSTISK
# Assay: PBM E-score (8-mer binding enrichment) (E-score (-0.5 to 0.5)); higher = stronger / more preferred TF binding; most listed sequences are background and not binding sites
# Conditions: protein concentration: 200 nM; construct: GST-full length
# In short: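 Yeast transcription factors, full-length or as DNA-binding domains, were expressed with a GST tag using PURExpress in vitro transcription/translation. At about 100-200 nM they were applied to universal all-10-mer Agilent arrays, double-stranded by primer extension on fresh or once-stripped slides. Fluorescent anti-GST detected bound protein, and masliner normalised the scans. E-scores for ungapped eight-base words, pooled with reverse complements, came from the Universal PBM Analysis Suite.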
row,Sequence,PBM E-score
1,CATGTATA,0.243
2,CGCCGGGA,-0.237
3,GCGCTCCC,-0.068
4,ATGTTTGA,0.119
5,TCCTGGCA,-0.0985
6,ATGCTGTG,-0.055
7,ATAACGTA,-0.0408
8,CAGATCGC,-0.107
9,GGGTCACC,0.117
10,ATATCCCC,-0.231
11,AGCGGGAG,-0.207
12,AGGGCTAC,-0.261
13,ATGGGTCC,0.0288
14,AGCAGCTC,-0.304
15,CTTGGTCA,0.119
16,GCACGCTA,-0.27
17,GCGGAAGA,-0.0456
18,CGCTCATC,0.0112
19,ATTAGGTG,0.152
20,ACAGCTAA,0.0381
21,ACCTGGTA,-0.172
22,GAAAAGCC,-0.21
23,ATCATACA,0.236
24,GAACAAGC,-0.357
25,ATCATTAG,0.255

row,Sequence,PBM E-score
1,TATGGGCA,-0.217
2,CGCGTGTC,0.23
3,GCGGCCCC,-0.242
4,TGTTTAAA,0.0935
5,AGGTCAGG,-0.0683
6,ATCTGGAC,-0.0442
7,ATTTTAGC,0.0115
8,GGATTTCA,-0.0555
9,CACCTGTC,0.0814
10,AGCACTCC,-0.212
11,GGTATTCA,0.0856
12,GTCTTATA,0.189
13,ACAGGGCA,-0.128
14,CAGATAAG,0.0282
15,GTCCCGCA,-0.148
16,GCGCTGCA,-0.0789
17,CTGGAACA,-0.0557
18,CGCGCTGC,-0.286
19,CCCGCTGC,-0.00295
20,AGTCACTC,0.467
21,AGTTGATA,0.0544
22,CTGAACAG,-0.0315
23,GACTCACA,0.472
24,CTCGATCA,-0.0529
25,ACGCGAAA,-0.0513

row,Sequence,PBM E-score
1,ATCTAGTC,0.352
2,CGTTATGA,-0.00798
3,AGCTAAAC,-0.111
4,CGTCCTCC,-0.354
5,AAACTTAC,-0.0145
6,AAAACTGT,-0.081
7,CTGACGAA,-0.0302
8,AGAGTCGA,0.291
9,GCACTGCA,-0.0358
10,GACGCTAA,-0.0747
11,CCCCACCA,-0.128
12,ATGGGATC,-0.133
13,ACGGTCCC,-0.134
14,AGCAAACC,0.00536
15,CGGTCACG,-0.137
16,GCCGGCTA,-0.195
17,TCCGATCA,0.0392
18,GTCAGTGA,0.31
19,ACGACGGC,-0.173
20,CACTACGG,-0.19
21,ACATATAT,-0.099
22,ACTTTGCC,-0.159
23,AGTGACGG,-0.0747
24,GTATATAA,0.146
25,ATTGGACG,-0.309

row,Sequence,PBM E-score
1,AGAGAAAA,0.101
2,ATTTCGGC,0.0774
3,CCCTTTGC,-0.196
4,CAGCTGCC,-0.0456
5,AGTGTTTA,0.0674
6,AGCCAAGA,-0.0541
7,AACTTAGC,-0.162
8,ACAATCCA,0.0182
9,AGATAAAG,0.0643
10,ACACGAGC,-0.0577
11,ATGACTCG,0.491
12,ATTTAAAT,0.256
13,GGATTGCC,-0.184
14,CAAGCATG,0.0735
15,AATCGGGC,-0.0426
16,CAATTCAA,0.0786
17,ACCTTAAT,-0.0665
18,CTAACGGC,0.11
19,CATTCGCG,0.0522
20,CGACGGGC,-0.0405
21,AATAAGGA,-0.246
22,ATTTAAAG,0.212
23,AGTTGGCA,-0.118
24,ACTTCACT,0.00441
25,GTGATAGA,-0.122

row,Sequence,PBM E-score
1,GCAATGAA,0.0198
2,GCGGAAGC,-0.283
3,CTGGGACC,-0.309
4,CCGCGATC,-0.106
5,AACCATAG,0.286
6,GGCAAGCA,-0.36
7,ACTGTGAC,0.397
8,CTGCTCAA,-0.104
9,CATTCCAC,-0.0962
10,GGCTTAGA,-0.184
11,AACTCCAG,-0.14
12,CTTAGTTA,0.221
13,ACAGTCGG,0.181
14,ATCCAAGG,0.0102
15,GGATGACA,-0.158
16,TAACACGA,0.204
17,AGTCCTAA,0.366
18,TGGACTAA,0.348
19,AGCAAAAA,-0.0675
20,ACACACGT,-0.00017
21,CTTCCGTA,-0.158
22,ACGTAATC,0.212
23,CAATGTCA,-0.00361
24,ACTATCGG,0.139
25,TCACGGCA,0.109

row,Sequence,PBM E-score
1,CCGAGGCG,-0.0738
2,AACCCCGG,-0.0921
3,ATGGATTC,0.128
4,ACCCCTGA,0.0766
5,ACTCTGTG,0.182
6,CCACATCA,-0.0384
7,CTGTAACA,0.0752
8,AAAAAAGT,0.13
9,CGGTGCCC,-0.145
10,AATTGAGT,0.345
11,AAGGTCAT,0.199
12,GAATGGCC,-0.206
13,CTCCGGTC,-0.12
14,CATCGAGC,-0.176
15,CAGTCGTC,0.232
16,CCTCCTGA,0.116
17,CTACTTAA,0.104
18,CATTCAAG,-0.029
19,GAGTATGC,0.0529
20,CCTCCGTA,-0.0659
21,AGTCCTAG,0.29
22,GGCTCACA,0.13
23,GACACGTA,-0.0688
24,AAGGACCG,-0.246
25,AGCGTCTC,-0.281

row,Sequence,PBM E-score
1,CATGTCGG,0.0567
2,CAGCGTAG,0.13
3,ACTTGACC,-0.0272
4,ACCGTGAC,0.205
5,AAAAATGG,-0.128
6,TCCATACA,-0.00517
7,CGTGGTAC,-0.0776
8,TATTTCCA,-0.235
9,AGGAGAGC,-0.261
10,CTATAGCA,0.0361
11,AAGCGTTG,-0.0741
12,CGGAGCCC,-0.362
13,AGAAGACA,-0.13
14,ATACAGTA,0.0168
15,CAGCCGCG,-0.0342
16,CCGGGCAG,-0.0961
17,AGACATAC,0.17
18,AGAGGCAT,-0.122
19,CGGATTTA,0.0553
20,CCAGCAAC,-0.192
21,GAATGTTA,-0.06
22,AGCGTCCG,-0.131

# Source: the supplement of paper PMC3334620
